Experiments:
HeLa Kyoto [1] = assay: solubility in G1/S (NP-40 vs SDS abundance) (log2 ratio); higher = more soluble; details: cell cycle stage: G1/S
HeLa Kyoto [2] = assay: melting temperature (median over replicates), in situ; higher = more thermally stable
HeLa Kyoto [3] = assay: solubility change mitosis vs G1/S (difference of NP-40 vs SDS log2 ratios) (log2 ratio difference); higher = more soluble in mitosis
HeLa Kyoto [4] = assay: thermal stability score vs G1/S (z-score of summed log2 fold changes over temperatures); higher = more thermally stable than in G1/S
[5] = cell cycle stage: early G1 (4.5 h after nocodazole release)
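Wherever melting temperature (median over replicates), in situ is given: HeLa Kyoto cells synchronized by double thymidine or nocodazole block, proteins quantified by TMT10plex mass spectrometry, three independent biological replicates.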
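Wherever solubility change mitosis vs G1/S (difference of NP-40 vs SDS log2 ratios) is given: synchronized HeLa Kyoto cells (double thymidine block for G1/S, nocodazole release for mitosis), protein amounts in NP-40 versus SDS lysates quantified by mass spectrometry, three biological replicates.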
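Wherever solubility in G1/S (NP-40 vs SDS abundance) is given: HeLa Kyoto cells arrested at G1/S by double thymidine block, proteins quantified by TMT10plex mass spectrometry in mild NP-40 versus SDS extracts, three biological replicates.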
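Wherever thermal stability score vs G1/S (z-score of summed log2 fold changes over temperatures) is given: synchronized HeLa Kyoto cells, proteins quantified by TMT10plex mass spectrometry, three biological replicates, mitosis taken 0.5 h after nocodazole release, G1/S directly after double thymidine block.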

Row | Substance | solubility in G1/S (log2) (HeLa Kyoto [1]) | melting temperature (HeLa Kyoto [2]; cell cycle stage: G1/S) | melting temperature (HeLa Kyoto [2]; cell cycle stage: mitosis) | solubility change mitosis (log2) (HeLa Kyoto [3]) | thermal stability score (HeLa Kyoto [4]; [5]) | thermal stability score (HeLa Kyoto [4]; cell cycle stage: mitosis)
1 | MRAHPGGGRCCPEQEEGESAAGGSGAGGDSAIEQGGQGSALAPSPVSGVRREGARGGGRGRGRWKQAGRGGGVCGRGRGRGRGRGRGRGRGRGRGRPPSGGSGLGGDGGGCGGGGSGGGGAPRREPVPFPSGSAGPGPRGPRATES[skipping about 60 residues]SKLQKNKQRLRNDPLNQNKGKPDLNTTLPIRQTASIFKQPVTKVTNHPSNKVKSDPQRMNEQPRQLFWEKRLQGLSASDVTEQIIKTMELPKGLQGVGPGSNDETLLSAVASALHTSSAPITGQVSAAVEKNPAVWLNTSQPLCKAFIVTDEDIRKQEERVQQVRKKLEEALMADILSRAADTEEMDIEMDSGDEA [MBD2] | 0.398 | 47.3 °C | 51.1 °C | 0.242 | – | –
2 | NDUFS4 (sequence left out) | 0.164 | 52.9 °C | 52.5 °C | 0.0161 | -1.24 | -4.28
3 | MTCL1 (sequence left out) | -0.075 | 49.4 °C | 49.7 °C | 0.182 | 0.907 | 0.291
4 | VAPB (sequence left out) | 0.772 | 52.4 °C | 52.9 °C | 0.0358 | 1.18 | 1.24
5 | PCSK9 (sequence left out) | -0.0148 | 53.6 °C | 53.5 °C | -0.0179 | 4.01 | 3.53
6 | AXL (sequence left out) | -0.162 | – | – | 0.155 | – | –
7 | PSMD3 (sequence left out) | 0.0712 | 53.6 °C | 52.9 °C | -0.0429 | 1.67 | 4.21
8 | NDUFS7 (sequence left out) | 0.171 | 52.2 °C | 52.1 °C | 0.0189 | -0.183 | -0.803
9 | FKBP10 (sequence left out) | 0.742 | 54.4 °C | 55.8 °C | -0.112 | 1.33 | 3.39
10 | MVP (sequence left out) | -0.0452 | 52.7 °C | 51.6 °C | 0.00478 | -2.41 | -4.22
11 | DIS3L (sequence left out) | -0.191 | – | – | -0.11 | – | –
12 | MPG (sequence left out) | -0.00106 | 50.5 °C | 52.6 °C | 0.229 | 0.782 | 1.26
13 | MCM2 (sequence left out) | 0.0081 | 50.6 °C | 50.7 °C | -0.0607 | 1.47 | 2.62
14 | NDUFA9 (sequence left out) | -0.48 | 50.7 °C | 50.1 °C | -0.0973 | 0.953 | 2.32
15 | PPAT (sequence left out) | -0.0446 | 58.8 °C | 58.6 °C | -0.1 | -3.24 | -3.13
16 | COX5B (sequence left out) | 0.191 | 54.3 °C | 52.7 °C | 0.0454 | -2.92 | -4.57
17 | KMT2D | -0.125 | 50.9 °C | 51.1 °C | -0.00845 | 0.207 | 1.69
18 | GNL1 (sequence left out) | -0.0609 | 50.7 °C | 50.1 °C | -0.16 | -0.647 | 0.0916
19 | MAD2L1 (sequence left out) | 0.0553 | 49.2 °C | 51 °C | -0.252 | 1.35 | 1.8
20 | MET (sequence left out) | -0.021 | 50.8 °C | 50.7 °C | -0.106 | 0.399 | 1.18
21 | RANBP2 (sequence left out) | -0.575 | 46.1 °C | 48.7 °C | 0.301 | 4.37 | 10.4

From the supplement of paper PMC5998384
